# Laboratory results reported in publication PMC12820563.
# This is one part of the list. The list includes weakly bound sequences.
# Target: T1, MBP-FoxP3dN (UniProt Q99JB6)
# T1 sequence: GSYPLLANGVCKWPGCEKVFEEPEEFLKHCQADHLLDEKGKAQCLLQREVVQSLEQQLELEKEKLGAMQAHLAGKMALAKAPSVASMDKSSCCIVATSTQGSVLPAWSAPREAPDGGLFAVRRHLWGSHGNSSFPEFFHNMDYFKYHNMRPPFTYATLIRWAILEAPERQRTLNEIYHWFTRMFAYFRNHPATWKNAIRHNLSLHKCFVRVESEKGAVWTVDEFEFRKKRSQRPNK
# Experiment: PD-seq (MBP pull-down with sequencing)
# Settings: 20 mM Tris-HCl pH 7.5, 100 mM NaCl, 1.5 mM MgCl2, 0.4 uM protein, 0.1 uM dsDNA library, 30 min, room temperature, amylose pull-down; high values mean tight binding; double strand, one strand shown
row,Sequence,binding signal (RPM ratio (pull-down/input))
1,GATGATTGTTCTCCCAGCTGATGAATTTCTTAGCTCGAGTAAACAAATTTTCCTAATCTTTCTGTTCAAGCGCCATCTAC,0.342
2,GATGATTGTTCTCCCAGCTGATGAATTGCTAGTGTCGAGTAAACAAATTTTCCTAATCTTTCTGTTCAAGCGCCATCTAC,0.949
3,GATGATTGTTCTCCCAGCTGATGAATTTCTTGTGTCGAGTAAACAAATTTTCCTAATCTTTCTGTTCAAGCGCCATCTAC,1.59
4,GATGATTGTTCTCCCAGCTGATGAATTGCGCACCTCGAGTAAACAAATTTTCCTAATCTTTCTGTTCAAGCGCCATCTAC,2.12
5,GATGATTGTTCTCCCAGCTGATGAATTTTTAAGCTCGAGTAAACAAATTTTCCTAATCTTTCTGTTCAAGCGCCATCTAC,0.165
6,GATGATTGTTCTCCCAGCTGATGAATTGAAATTCTCGAGTAAACAAATTTTCCTAATCTTTCTGTTCAAGCGCCATCTAC,0.366
7,GATGATTGTTCTCCCAGCTGATGAATTTCAATCATCGAGTAAACAAATTTTCCTAATCTTTCTGTTCAAGCGCCATCTAC,0.558
8,GATGATTGTTCTCCCAGCTGATGAATTGACTATGTCGAGTAAACAAATTTTCCTAATCTTTCTGTTCAAGCGCCATCTAC,0.449
9,GATGATTGTTCTCCCAGCTGATGAATTGCTGCACTCGAGTAAACAAATTTTCCTAATCTTTCTGTTCAAGCGCCATCTAC,1.03
10,GATGATTGTTCTCCCAGCTGATGAATTCCGCAGATCGAGTAAACAAATTTTCCTAATCTTTCTGTTCAAGCGCCATCTAC,0.352
11,GATGATTGTTCTCCCAGCTGATGAATTGCGTTAGTCGAGTAAACAAATTTTCCTAATCTTTCTGTTCAAGCGCCATCTAC,1.6
12,GATGATTGTTCTCCCAGCTGATGAATTCGCGTACTCGAGTAAACAAATTTTCCTAATCTTTCTGTTCAAGCGCCATCTAC,1.1
13,GATGATTGTTCTCCCAGCTGATGAATTTTGTTACTCGAGTAAACAAATTTTCCTAATCTTTCTGTTCAAGCGCCATCTAC,3.84
14,GATGATTGTTCTCCCAGCTGATGAATTAGTGCGATCGAGTAAACAAATTTTCCTAATCTTTCTGTTCAAGCGCCATCTAC,0.851
15,GATGATTGTTCTCCCAGCTGATGAATTTATCGAATCGAGTAAACAAATTTTCCTAATCTTTCTGTTCAAGCGCCATCTAC,0.374
16,GATGATTGTTCTCCCAGCTGATGAATTTCCCTTGTCGAGTAAACAAATTTTCCTAATCTTTCTGTTCAAGCGCCATCTAC,0.286
17,GATGATTGTTCTCCCAGCTGATGAATTGGCCCTTTCGAGTAAACAAATTTTCCTAATCTTTCTGTTCAAGCGCCATCTAC,0.366
18,GATGATTGTTCTCCCAGCTGATGAATTAGACGCTTCGAGTAAACAAATTTTCCTAATCTTTCTGTTCAAGCGCCATCTAC,0.539
19,GATGATTGTTCTCCCAGCTGATGAATTTACTACGTCGAGTAAACAAATTTTCCTAATCTTTCTGTTCAAGCGCCATCTAC,0.515
20,GATGATTGTTCTCCCAGCTGATGAATTAAAGCCCTCGAGTAAACAAATTTTCCTAATCTTTCTGTTCAAGCGCCATCTAC,0.498

row,Sequence,binding signal (RPM ratio (pull-down/input))
1,GATGATTGTTCTCCCAGCTGATGAATTCATAATGTCGAGTAAACAAATTTTCCTAATCTTTCTGTTCAAGCGCCATCTAC,0.441
2,GATGATTGTTCTCCCAGCTGATGAATTCGGTACTTCGAGTAAACAAATTTTCCTAATCTTTCTGTTCAAGCGCCATCTAC,0.575
3,GATGATTGTTCTCCCAGCTGATGAATTCGATATTTCGAGTAAACAAATTTTCCTAATCTTTCTGTTCAAGCGCCATCTAC,1.79
4,GATGATTGTTCTCCCAGCTGATGAATTCGCTTTTTCGAGTAAACAAATTTTCCTAATCTTTCTGTTCAAGCGCCATCTAC,1.75
5,GATGATTGTTCTCCCAGCTGATGAATTCGTCGGATCGAGTAAACAAATTTTCCTAATCTTTCTGTTCAAGCGCCATCTAC,0.259
6,GATGATTGTTCTCCCAGCTGATGAATTAATCCAGTCGAGTAAACAAATTTTCCTAATCTTTCTGTTCAAGCGCCATCTAC,0.17
7,GATGATTGTTCTCCCAGCTGATGAATTTTTGGTCTCGAGTAAACAAATTTTCCTAATCTTTCTGTTCAAGCGCCATCTAC,0.351
8,GATGATTGTTCTCCCAGCTGATGAATTCTTTAGATCGAGTAAACAAATTTTCCTAATCTTTCTGTTCAAGCGCCATCTAC,0.255
9,GATGATTGTTCTCCCAGCTGATGAATTGTAACCCTCGAGTAAACAAATTTTCCTAATCTTTCTGTTCAAGCGCCATCTAC,0.553
10,GATGATTGTTCTCCCAGCTGATGAATTTAATGGTTCGAGTAAACAAATTTTCCTAATCTTTCTGTTCAAGCGCCATCTAC,2.17
11,GATGATTGTTCTCCCAGCTGATGAATTTAAGCCTTCGAGTAAACAAATTTTCCTAATCTTTCTGTTCAAGCGCCATCTAC,1.91
12,GATGATTGTTCTCCCAGCTGATGAATTCTTATTGTCGAGTAAACAAATTTTCCTAATCTTTCTGTTCAAGCGCCATCTAC,1.04
13,GATGATTGTTCTCCCAGCTGATGAATTCTAGGTCTCGAGTAAACAAATTTTCCTAATCTTTCTGTTCAAGCGCCATCTAC,0.369
14,GATGATTGTTCTCCCAGCTGATGAATTTTGCAGCTCGAGTAAACAAATTTTCCTAATCTTTCTGTTCAAGCGCCATCTAC,3.37
15,GATGATTGTTCTCCCAGCTGATGAATTCACAGCTTCGAGTAAACAAATTTTCCTAATCTTTCTGTTCAAGCGCCATCTAC,0.314
16,GATGATTGTTCTCCCAGCTGATGAATTTCGTGAGTCGAGTAAACAAATTTTCCTAATCTTTCTGTTCAAGCGCCATCTAC,0.505
17,GATGATTGTTCTCCCAGCTGATGAATTCTACCCATCGAGTAAACAAATTTTCCTAATCTTTCTGTTCAAGCGCCATCTAC,0.282
18,GATGATTGTTCTCCCAGCTGATGAATTGATCAGGTCGAGTAAACAAATTTTCCTAATCTTTCTGTTCAAGCGCCATCTAC,0.232
19,GATGATTGTTCTCCCAGCTGATGAATTGGGACACTCGAGTAAACAAATTTTCCTAATCTTTCTGTTCAAGCGCCATCTAC,1.27
20,GATGATTGTTCTCCCAGCTGATGAATTGAACTGGTCGAGTAAACAAATTTTCCTAATCTTTCTGTTCAAGCGCCATCTAC,0.209
